Source: patent US20070077283A1, “METHOD OF ENHANCING TRANSMUCOSAL DELIVERY OF THERAPEUTIC COMPOUNDS” (Nastech Pharmaceutical Company Inc., priority 2005, published 2007)
For part of these data: The name of at least one read-out is uncertain. Some results were stated once for a whole list of compounds, not compound by compound. For part of these data: At least one compound was matched to its structure with a doubt left.

Key:
[1] = system: human-derived tracheal/bronchial epithelial cells (EpiAirway Tissue Model); assay: TER recovery / TER time course; assay type: cell-based; conditions: for time to recover to PBS control TER levels: lipid 1000 μM in the presence of Buffer I; for TER recovery time post-treatment: lipid 1000 μM incubated 15, 30 or 60 minutes, TER at zero, 20 and 24 hours
Experimental: TER recovery was calculated as described in the above paragraph.
Reversibility is a critical factor in selecting epithelial cell permeabiling enhancers since the barrier function of the epithelial cells serves as the first line of defense against pathogens and the entrance of toxins into the body. The permeation enhancing lipids C16 PAF; C18 PAF; C16 Enantiomeric PAF; POVPC; C16-04: 1 PC and PGPC were incubated with a monolayer of human-derived tracheal/bronchial epithelial cells (EpiAirway™ Model System) and TER […] The lipid glucosyl sphingosine was also tested. Each permeation enhancing lipid (except PGPC) was applied at a concentration of 1000 μM for 15, 30 and 60 minutes. The permeation enhancing lipid PGPC and the lipid glucosyl sphingosine were applied at a concentration of 500 μM for 1, 3, 5, 30 and 60 minutes. TER measurements were taken immediately after each application to determine how quickly each lipid could reduce TER.
[…] […] PBS served as a negative control and Triton-X100™ served as a positive control.
To asses how quickly the cells recovered after application and removal of the permeation enhancing lipid PGPC and the lipid glucosyl sphingosine, TER measurements were taken at 1, 3, 5, 7, and 9 hours post-treamtnet for each of the prior mentioned timed treatments (i.e., 1, 3, 5, 15, 30 and 60 minutes). TER recovery measures the reversibility of the lipid mediated effect on an epithelia. […] Hyptonic PBS served as a negative control for TER reduction and TER recovery.

[2] = system: human-derived tracheal/bronchial epithelial cells (EpiAirway Tissue Model); assay: Transepithelial electrical resistance (TER) of an epithelial cell monolayer; assay type: cell-based; conditions: for TER reduced by: summary of Table 3, concentration not given
Experimental: Inserts are feed for each day of recovery. TER measurements were accomplished using the Endohm-12 Tissue Resistance Measurement Chamber connected to the EVOM Epithelial Voltohmmeter (World Precision Instruments, Sarasota, Fla.) with the electrode leads. The electrodes and a tissue culture blank insert were equilibrated for at least 20 minutes in MatTek medium with the power off prior to checking calibration. The background resistance was measured with 1.5 ml media in the Endohm tissue chamber and 300 μl media in the blank insert. The top electrode was adjusted so that it was close to, but not making contact with, the top surface of the insert membrane. Background resistance of the blank insert was about 5-20 ohms. […] TER values are a function of the surface area of the tissue. […] By this method of calculation, TER will be expressed as both Ohms*cm2 and percent original TER value. […] Several different lipid types (see Table 1) were screened to select for lipids that are capable of enhancing the permeation of a biological agent across an epithelial cell monolayer. […] A reduction in TER correlates with the ability to enhance the permeation of a molecule and biological agent across an epithelia.

[3] = system: human-derived tracheal/bronchial epithelial cells (EpiAirway Tissue Model); conditions: summary of Table 3; concentration not given; % of Triton-X100 LDH
Experimental: Normal, human-derived tracheal/bronchial epithelial cells will serve as the model cell system for assessing the lipids listed in Table 1. The cells are supplied by MatTek Corp. (Ashland, Mass.) as the EpiAirway™ Tissue Model. The cells are provided as a confluent monolayer on a Millipore Milicell-CM cell culture insert with a pore size of 0.4 μM, inner diameter of 0.8 cm and surface area of 0.6 cm^2 and comprised of transparent hydrophilic Teflon (PTFE). Upon receipt, the membranes are cultured in 1 ml basal media (phenol red-free and hydrocortisone-free Dulbecco's Modified Eagle's Media (DMEM) at 37° C./5% CO2 for 24-48 hours before use. Inserts are feed for each day of recovery.
The amount of cell death was assayed by measuring the loss of lactate dehydrogenase (LDH) from the cells using a CytoTox 96 Cytotoxicity Assay Kit (Promega Corp., Madison, Wis.). […] Total LDH levels were determined by lysing cells in a final concentration of 0.9% Triton-X100™. […] Following incubation, 50 μl of stop solution was added to each well and the plates read on an optical density plate reader at […]. Cytotoxicity was expressed as a percentage calculated by subtracting the average absorbance of the PBS control wells as the endogenously released LDH level and expressing that value relative to the average Triton-X100 control, which represents total LDH content. […]

[4] = in the presence of FITC-Dextran FD3 (Table 6)
[5] = in the presence of FITC-Dextran FD10 (Table 6)
[6] = in the presence of FITC-Dextran FD40 (Table 6)
[7] = in the presence of FITC-Dextran FD70 (Table 6)
[8] = in the presence of FITC-Dextran FD500 (Table 6)

| Compound | time to recover to PBS control TER levels [1] [h] | TER recovery time post-treatment [1] [h] | Mean % of Original TER Value [2, 4] [%] | Mean % of Original TER Value [2, 5] [%] | Mean % of Original TER Value [2, 6] [%] | Mean % of Original TER Value [2, 7] [%] | Mean % of Original TER Value [2, 8] [%] | TER reduced by [2] [%] | LDH levels [3] | time to TER reduction ([1]; lipids 500 μM, PN159 25 μM) [min] |
| --- | --- | --- | --- | --- | --- | --- | --- | --- | --- | --- |
| CCCCCCCCCCCCCCCCOC[C@@H](COP(=O)([O-])OCC[N+](C)(C)C)OC(C)=O [C16 Enantiomeric PAF, 3-O-Hexadecyl-2-Acetoyl-sn-Glycero-1-Phosphocholine] | ≤ 16 | ≤ 20 | 3 | 2 | 3 | 2 | 2 |  |  |  |
| CCCCCCCCCCCCCCCC(=O)OC[C@H](COP(=O)([O-])OCC[N+](C)(C)C)OC(=O)CCCCCCCC(=O)O [16:0-09:0(COOH)PC, 1-Palmitoyl-2-Azelaoyl-sn-Glycero-3-Phosphocholine] |  |  |  |  |  |  |  | ≥ 80 |  |  |
| CCCCCCCCCCCCCCCC(=O)OC[C@H](COP(=O)([O-])OCC[N+](C)(C)C)OC(=O)CCCCCCCC=O [16:0-09:0(ALDO)PC, 1-Palmitoyl-2-(9′-oxo-Nonanoyl)-sn-Glycero-3-Phosphocholine] |  |  |  |  |  |  |  | ≥ 80 |  |  |
| CCCCCCCCCCCCC/C=C/[C@@H](O)[C@@H](N)CO[C@@H]1O[C@H](CO)[C@H](O)[C@H](O)[C@H]1O [Galactosyl sphingosine, D-Galactosyl-β1-1′-D-erythro-Sphingosine] |  |  |  |  |  |  |  | ≥ 80 |  |  |
| CCCCCCCCCCCCCCCC(=O)OC[C@H](COP(=O)([O-])OCC[N+](C)(C)C)OC(=O)CCCC=O [POVPC, 1-Palmitoyl-2-(5′-oxo-Valeroyl)-sn-Glycero-3-Phosphocholine] | ≤ 16 |  | 7 | 6 | 8 | 8 | 6 | ≥ 80 | below 30% |  |
| C=CCC(=O)O[C@H](COCCCCCCCCCCCCCCCC)COP(=O)([O-])OCC[N+](C)(C)C [C16-04:1 PC] | ≤ 16 | ≤ 20 | 2 | 2 | 1 | 1 | 0 |  |  |  |
| CCCCCCCCCCCCC/C=C/[C@@H](O)[C@@H](N)CO[C@@H]1O[C@H](CO)[C@@H](O[C@@H]2O[C@H](CO)[C@H](O)[C@H](O)[C@H]2O)[C@H](O)[C@H]1O [Lactosyl(β) Sphingosine, D-Lactosyl-β1-1′-D-erythro-Sphingosine] |  |  |  |  |  |  |  | ≥ 80 |  |  |
| CCCCCCCCCCCCCCCCOC[C@H](COP(=O)([O-])OCC[N+](C)(C)C)OC(=O)CCCCCCCC(=O)O [Azelaoyl PAF (C16-09:0), 1-O-Hexadecyl-2-Azelaoyl-sn-Glycero-3-Phosphocholine] |  |  |  |  |  |  |  | ≥ 80 |  |  |
| CCCCCCCCCCCCCCCC(=O)OC[C@H](COP(=O)([O-])OCC[N+](C)(C)C)OC(=O)CCCC(=O)O [PGPC, 1-Palmitoyl-2-Glutaroyl-sn-Glycero-3-Phosphocholine] |  |  |  |  |  |  |  | ≥ 80 |  | ≤ 1 |
| CCCCCCCCCCCCCCCCCCOC[C@H](COP(=O)([O-])OCC[N+](C)(C)C)OC(C)=O [C18-02:0 PC(C18 PAF), 1-O-Octadecyl-2-Acetoyl-sn-Glycero-3-Phosphocholine] | ≤ 16 | ≤ 20 | 2 | 1 | 0 | 0 | 0 |  |  |  |
| CCCCCCCCCCCCCCCCOC[C@H](COP(=O)([O-])OCC[N+](C)(C)C)OC(C)=O [C16-02:0 PC(C16 PAF), 1-O-Hexadecyl-2-Acetoyl-sn-Glycero-3-Phosphocholine] | ≤ 16 | ≤ 20 | 4 | 3 | 3 | 3 | 3 |  |  |  |
| 1-Alkyl-2-Hydroxy-sn-Glycero-3-Phosphocholine [Lyso-Platelet-Activation Factor] |  |  |  |  |  |  |  | ≥ 80 | below 30% |  |
